Patent US20240408222A1, “COMPOUNDS, PHARMACEUTICAL COMPOSITIONS, AND METHODS FOR THE TREATMENT, PREVENTION, OR MANAGEMENT OF HYPERPRO[…]” (VINCERX PHARMA GMBH, priority 2021, published 2024)
At least one compound was matched to its structure with a doubt left.

Assays:
786-O [1] = experiment: Cytotoxicity in vitro (MTT) in presence/absence of elastase; assay type: cell-based, human; details: 72 h
Protocol: (§1) Cultivation of cells was performed according to standard procedures with the media recommended by the provider. The cells, in a total volume of 100 μL, were seeded in a 96-well plate with a white bottom (#3610). After a 24 h incubation period at 37° C. and […], the medium was exchanged by adding 90 μL fresh medium. The treatment started by adding the test compound in 10 μL of culture medium to the cells in triplicates. Concentrations ranging from 10^−5 M to 10^−13 M were chosen. Two identically treated sets of samples were prepared. One set was treated with the test compound alone, whereas to the second set the compound and 10 nM elastase was added followed by a 72 h incubation period at 37° C. and […]. The proliferation was detected using the MTT assay (ATCC). At the end of the incubation period the MTT reagent was added to all samples for 4 h. Lysis of the cells followed by addition of the detergent was done overnight. The formed dye was detected at 570 nm. The proliferation of untreated but otherwise identically handled cells was define as the 100% value.

HT29 [2] = experiment: as above; assay type: cell-based, human; details: 72 h
Protocol: as §1

NCI H292 [3] = experiment: as above; assay type: cell-based, human; details: 72 h
Protocol: as §1

SUM149 [4] = experiment: as above; assay type: cell-based; details: 72 h
Protocol: as §1

786-O [5] = experiment: Cytotoxicity assay (Version 2, automated, AC50) with/without neutrophil elastase; assay type: cell-based, human; details: Version 2, activity concentration at −50%
Protocol: as §1
(§2) The cytotoxicity assay (Version 2) was performed as described above. Some changes were applied as the assays were performed in an automated fashion and the IC50 values determination was changed. Here the change in metabolic activity of the cells, in percent, was calculated by normalization of the measured values to the absorbance values of medium containing wells without cells (═−100%) and the absorbance of the DMSO-treated cells (═0%). AC50 values (activity concentration at −50%) were determined by means of a 4 parameter Hill-fit using GeneData Screener software.

HT29 [6] = experiment: as above; assay type: cell-based, human; details: Version 2, activity concentration at −50%
Protocol: as §1, §2

NCI H292 [7] = experiment: as above; assay type: cell-based, human; details: Version 2, activity concentration at −50%
Protocol: as §1, §2

SUM149 [8] = experiment: as above; assay type: cell-based; details: Version 2, activity concentration at −50%
Protocol: as §1, §2

HT29 [9] = experiment: Cytotoxicity in vitro in presence/absence of cathepsin B; assay type: cell-based, human
NCI H292 [10] = experiment: as above; assay type: cell-based, human
SUM149 [11] = experiment: as above; assay type: cell-based
cathepsin B = cathepsin B (Homo sapiens, UniProt P07858); experiment: Biochemical cathepsin B cleavage assay (metabolite detection by RP-HPLC)
Protocol: Incubation of samples starts with addition of cathepsin B solution (2.5 μg in […] 50 mM sodium phosphate buffer, pH 6.0/2 mM DTT). The incubation is performed at 40° C., and after 16 h incubation a 40 μL sample is taken and added to 80 μL ice-cold methanol. […] The metabolite (product) and the parent compound (educt) is measured.

[12] = without (−) neutrophil elastase
[13] = HT29, without (−) neutrophil elastase
[14] = NCI H292, without (−) neutrophil elastase
[15] = SUM149, without (−) neutrophil elastase
[16] = HT29, with (+) neutrophil elastase
[17] = NCI H292, with (+) neutrophil elastase
[18] = SUM149, with (+) neutrophil elastase

| Compound | AC50 (786-O [5]; with (+) neutrophil elastase) [nM] | AC50 (786-O [5]; [12]) [nM] | AC50 (HT29 [6]; [16]) [nM] | AC50 (HT29 [6]; [13]) [nM] | AC50 (NCI H292 [7]; [17]) [nM] | AC50 (NCI H292 [7]; [14]) [nM] | AC50 (SUM149 [8]; [18]) [nM] | AC50 (SUM149 [8]; [15]) [nM] | also measured |
| --- | --- | --- | --- | --- | --- | --- | --- | --- | --- |
| CCCNC(=O)Nc1cccc(S(=O)(=O)Nc2cccc([C@H](CC(=O)O)NC(=O)Nc3ccc(NC(=O)N(C)CCN(C)CCN(C)CC(=O)N[C@@H](CC(N)=O)C(=O)N4CCC[C@H]4C(=O)N[C@H](C(=O)N=[S@@](C)(=O)Cc4cc5cc(c4)OCCCCOc4cc(F)ccc4-c4nc(ncc4F)N5)C(C)C)cc3)c2)c1 [Compound 10, N-{2-[{2-[({4-[({(1S)-2-Carboxy-1-[3-({3-[(propylcarbamoyl)amino]benzene-1-sulfonyl}amino)phenyl]ethyl}carbamoyl)amino]phenyl}carbamoyl)(methyl)amino]ethyl}(methyl)amino]ethyl}-N-methylglycyl-L-asparaginyl-L-prolyl-N—[(S)-{[16,20-difluoro-2,3,4,5-tetrahydro-12H-13,17-(azeno)-11,7-(metheno)-1,6,12,14-benzodioxadiazacyclononadecin-9-yl]methyl}(methyl)oxo-lambda^6-sulfanylidene]-L-valinamide] | ≤ 10 | > 1000 | ≤ 10 | > 1000 | 11 to 100 | 100 to 1000 | ≤ 10 | 100 to 1000 | IC50 (786-O [1]; with (+) 10 nM neutrophil elastase): ≤ 1 nM; IC50 (786-O [1]; [12]): > 100 nM; IC50 (HT29 [2]; HT29, with (+) 10 nM neutrophil elastase): ≤ 1 nM; IC50 (HT29 [2]; [13]): 11 to 100 nM; IC50 (NCI H292 [3]; NCI H292, with (+) 10 nM neutrophil elastase): ≤ 1 nM; IC50 (NCI H292 [3]; [14]): > 100 nM; IC50 (SUM149 [4]; SUM149, with (+) 10 nM neutrophil elastase): 1.1 to 10 nM; IC50 (SUM149 [4]; [15]): > 100 nM |
| CCCNC(=O)Nc1cccc(S(=O)(=O)Nc2cccc([C@H](CC(=O)O)NC(=O)Nc3ccc(NC(=O)NCCOCCOCCOCCC(=O)N[C@H](C(=O)N[C@@H](CCCNC(N)=O)C(=O)N=[S@@](C)(=O)Cc4cc5cc(c4)OCCCCOc4cc(F)ccc4-c4nc(ncc4F)N5)C(C)C)cc3)c2)c1 [Compound 12, Sodium N-{14-[4-({[(1S)-2-carboxylato-1-{3-[({3-[(propylcarbamoyl)amino]phenyl}sulfonyl)amino]phenyl}ethyl]carbamoyl}amino)anilino]-14-oxo-4,7,10-trioxa-13-azatetradecan-1-oyl}-L-valyl-N^5-carbamoyl-N—[(S)-{[16,20-difluoro-2,3,4,5-tetrahydro-12H-13,17-(azeno)-11,7-(metheno)-1,6,12,14-benzodioxadiazacyclononadecin-9-yl]methyl}(methyl)oxido-lambda^6-sulfanylidene]-L-ornithinamide] | ≤ 10 | 100 to 1000 | ≤ 10 | > 1000 | 100 to 1000 | 100 to 1000 | ≤ 10 | 100 to 1000 | IC50 (HT29 [9]; HT29, with (+) cathepsin): > 100 nM; IC50 (HT29 [9]; HT29, without (−) cathepsin): > 100 nM; IC50 (NCI H292 [10]; NCI H292, with (+) cathepsin): > 100 nM; IC50 (NCI H292 [10]; NCI H292, without (−) cathepsin): > 100 nM; IC50 (SUM149 [11]; SUM149, with (+) cathepsin): 11 to 100 nM; IC50 (SUM149 [11]; SUM149, without (−) cathepsin): 11 to 100 nM; metabolite detected after incubation with cathepsin B (cathepsin B; 16 h incubation, 40° C., pH 6.0): 24%; metabolite formation without addition of active cathepsin B (cathepsin B; control without active cathepsin B): no metabolite formation is detected |
